Laboratory results published in paper PMC8363609.
These are yes or no findings as the source states them, for the method shown. In cells and extracts the contact can be indirect. Some binding calls cover weakened binding; strength is not graded here. Tags and fused reporters may be left off the sequences shown.

Columns and labels:
[1] = target: T1, GFP-SUN5 SUN domain (193–373aa) (UniProt Q9DA32); test: co-IP; HEK293T cells co-transfected with two tagged plasmids, collected after 24 h; lysed in ELB buffer (50 mM HEPES, 250 mM NaCl, 0.1% NP-40); IP with anti-GFP, anti-FLAG or anti-MYC antibody and Dynabeads-protein-G at 4 °C; immunoblot for the tags
T1 sequence: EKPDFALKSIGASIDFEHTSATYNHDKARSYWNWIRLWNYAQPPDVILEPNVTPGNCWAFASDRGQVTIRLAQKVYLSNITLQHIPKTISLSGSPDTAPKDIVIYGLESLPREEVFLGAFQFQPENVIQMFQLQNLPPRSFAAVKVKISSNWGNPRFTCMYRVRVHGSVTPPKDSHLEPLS

[2] = target: T2, GFP-tagged PMFBP1 (UniProt Q9WVQ0); test: as above
T2 sequence: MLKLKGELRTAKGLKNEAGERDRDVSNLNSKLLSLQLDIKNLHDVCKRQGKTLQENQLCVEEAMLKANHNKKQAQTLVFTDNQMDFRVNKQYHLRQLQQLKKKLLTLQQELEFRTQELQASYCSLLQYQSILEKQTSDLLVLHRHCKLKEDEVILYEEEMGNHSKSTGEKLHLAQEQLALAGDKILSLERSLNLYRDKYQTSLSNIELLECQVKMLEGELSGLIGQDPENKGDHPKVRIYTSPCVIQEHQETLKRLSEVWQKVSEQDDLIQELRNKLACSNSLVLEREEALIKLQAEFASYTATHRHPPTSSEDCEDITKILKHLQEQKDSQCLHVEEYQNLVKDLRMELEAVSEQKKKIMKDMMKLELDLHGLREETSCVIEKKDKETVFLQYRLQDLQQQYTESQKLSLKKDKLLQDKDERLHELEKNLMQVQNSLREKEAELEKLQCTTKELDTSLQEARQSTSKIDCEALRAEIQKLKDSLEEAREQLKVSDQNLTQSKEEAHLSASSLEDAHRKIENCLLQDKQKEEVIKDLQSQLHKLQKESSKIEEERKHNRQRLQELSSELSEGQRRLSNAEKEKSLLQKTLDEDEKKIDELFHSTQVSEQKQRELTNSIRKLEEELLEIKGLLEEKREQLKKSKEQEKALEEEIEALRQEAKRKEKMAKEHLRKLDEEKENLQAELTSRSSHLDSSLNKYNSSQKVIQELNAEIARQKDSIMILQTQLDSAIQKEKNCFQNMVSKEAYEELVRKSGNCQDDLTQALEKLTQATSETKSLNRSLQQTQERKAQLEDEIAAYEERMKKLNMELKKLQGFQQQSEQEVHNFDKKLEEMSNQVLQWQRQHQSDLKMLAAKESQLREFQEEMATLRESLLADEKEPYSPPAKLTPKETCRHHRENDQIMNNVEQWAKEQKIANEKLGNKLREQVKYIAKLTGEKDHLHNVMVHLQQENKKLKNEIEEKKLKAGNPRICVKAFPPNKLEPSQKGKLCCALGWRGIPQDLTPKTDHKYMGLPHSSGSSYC

B1: MYC-tagged CENTLEIN (protein, UniProt A2AM05 1-1397)
chain: MAARSPSSSPPPPPVRRSSRRSLRVGRGAEVHAVRSEASGLAGAAREVVADKSDLLWRGEEGSGGRRGSGRAGAAVAPVASAPAGSWWPEGLSSEEAKATRSQLLEEELSSLKEELALCQADKEFVWSLWRRLQATNPDLTQTVSLVVEREKQKSEAKDRKVLEILQVKDSKIQELEQTESVLKQELHDLVKLKTLVDEENAFLRKELCDLQKKFKDKSQEVKDAKECVQSKEEQNRLVIKNLEEENERLRTRCTDLLNDLEKLRNQEAHWRKEKHSVDTRVKVLEENLIEAKKEIESAQTKYNVVSQQLNNKQAELLQKDMDITLIRKELQELQNVYKQNSAHTAQQADLIQQLQALNMDTQKVLRNQEDVHTAESMSYQKLYNELHMCFETTKSNEVMLRQSVVNLQGQLFQKEQENVKLKEKLEESQGTAPSLSPHDSDSSHSGKAPLSTLETLMISQKSEIEYLQKKLKVANEKLMANRSCDQDFSEKGTEGKHKEPPVKRSRSLSPKSSFMGSEELRKLKKAERKIENLEKTLQLKSQENDELRDAHEKRKERLQMLHTNYRAVKEQLKQWEEDSGMAESRQMKRAEPHQLRQEDSDAVWNELAYFKRENQELMVQKMTLQDELDELKMHMSIDKTTIQELNRCMAEKREEQLFRQHEDAEVKKSTPEKNEKAISEETLQKVIELENRLKSFEKNSRKLKEESKRLKKENDFLKSHLKHYQEDSEAREKELEQLLRVSKDVEHDKSELQTKITALETEVTTLRRQVTEAKALRGKDEEVVCPEERAHRPTDKAKSEMATTDVRARRCDCKTATTKVKFKAAKRKCSVGRHHTVLNHSIKVMSHVENLSKDGWEDVSEGSSDSETQTFQNLGTIIVETSQNISPIEDGRNQKEIDQTEGSCAQQRAMQTYSCEDIKAPQSISHNKNTKKMTFQKKSGSLQKSLHSALPARVNREKCKNLPAQKSSSSTISLRERIVSLQQQNSLLQNARRAAEASAKEYKEANEKLLHQQQVSDHRFQTSRQTIKKLTLDLAELRKEKEDLLKKVESSSDIMSLAEEVSRIMAPQIKVTTLGPSRSMDLEMKQLQCKLKNATNELTKQSSNVKSLRMELLAKDDHIKEMHERTSRMERDITMKRHLIEDLKFRQKVNSESNESFNEMLETLEKKVKSLTEECSNKKVSVDSLKQRLNVAVKEKSQYEQMYQKTKEELEKKDLKMSVLISKLNDTETAMAQIETAASEQLQGLALQSEQVLEGAQKKLLSANEKIEEFTVFVKALVNELQSDVHGTRHQIRELKKMQKSRHACKTSTHKAQTLAASILNISRSDLEEILDTEDELEIEKTKIDIENDKEWMLYIQKLLEGQLPFASYLLEAVLEKIKENKKLTEGYFTVMKDTK
Q: What does the source list for B1?
A: binding [1]: binds; binding [2]: binds
